From PubChem BioAssay AID488969 (Vanderbilt High Throughput Screening Facility, 2010)
In all, about 110,000 compounds were measured (“z-score”: median about -0.1, highest 2% from about 2 on). Some of the results follow. Active and inactive are the calls of the source.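 Rule for the calls: active = z-score in the third read window above 3 or below -3; inactive = the rest.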

What follows are molecules tested against Metabotropic glutamate receptor 8 (Rattus norvegicus) (UniProt P70579) (assay: rat mGluR8 modulators via GIRK flux, primary screen, cell-based, thallium flux, HTS (AID 488969)). Conditions: HEK293 rat mGluR8, GIRK (G protein-gated inwardly rectifying potassium channel) thallium flux, FluoZin2; at 10 µM; stronger effect = higher value; submaximal glutamate (EC20) added with thallium.
Chain of UniProt P70579 (P70579 whole entry, looked up): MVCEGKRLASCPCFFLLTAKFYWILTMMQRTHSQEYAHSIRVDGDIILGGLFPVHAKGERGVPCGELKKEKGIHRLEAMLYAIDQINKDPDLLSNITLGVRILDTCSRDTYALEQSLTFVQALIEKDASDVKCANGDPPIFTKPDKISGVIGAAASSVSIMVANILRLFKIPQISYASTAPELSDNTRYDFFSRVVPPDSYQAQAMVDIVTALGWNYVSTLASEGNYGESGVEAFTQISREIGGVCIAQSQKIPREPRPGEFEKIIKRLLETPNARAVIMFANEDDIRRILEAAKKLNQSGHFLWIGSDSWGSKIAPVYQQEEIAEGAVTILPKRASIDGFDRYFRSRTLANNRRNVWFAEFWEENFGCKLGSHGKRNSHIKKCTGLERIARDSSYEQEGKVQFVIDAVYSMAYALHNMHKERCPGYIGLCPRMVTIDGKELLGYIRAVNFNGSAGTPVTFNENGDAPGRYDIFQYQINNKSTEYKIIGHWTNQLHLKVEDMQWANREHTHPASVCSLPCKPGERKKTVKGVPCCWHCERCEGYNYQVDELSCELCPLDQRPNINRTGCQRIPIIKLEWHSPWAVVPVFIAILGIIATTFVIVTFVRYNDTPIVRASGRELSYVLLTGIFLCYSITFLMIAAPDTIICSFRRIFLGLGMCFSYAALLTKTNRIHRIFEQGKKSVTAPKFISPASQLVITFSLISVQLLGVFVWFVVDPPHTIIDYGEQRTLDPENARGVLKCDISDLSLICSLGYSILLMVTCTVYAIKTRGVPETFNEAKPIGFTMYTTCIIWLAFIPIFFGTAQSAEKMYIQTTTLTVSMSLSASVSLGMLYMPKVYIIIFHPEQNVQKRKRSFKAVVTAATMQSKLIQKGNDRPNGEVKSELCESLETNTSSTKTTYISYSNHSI

| SMILES | z-score |
| --- | --- |
| Cc1ccc(C)c(S(=O)(=O)NCC(=O)Nc2sc3c(c2C(N)=O)CCC(C)C3)c1 (stereo not drawn) | -0.403 |
| CCc1c(C)nc2c(Br)cccc2c1SCCC#N | -0.993 |
| CC(=O)Nc1ccc(NC(=O)CC2Nc3cccc4cccc(c34)NC2=O)cc1 (stereo not drawn) | 0.459 |
| CN(C)CCCNC(=O)CC(c1ccccc1)c1ccccc1O (stereo not drawn) | 0.34 |
| O=[N+]([O-])/C=C/c1cn(Cc2ccccc2)c2ccccc12 | 0.0881 |
| CC12CN3CCN(CC(C3)/C1=N/NC(=O)Nc1ccccc1)C2 | 0.217 |
| Cc1nnc(NC(=O)CSc2nc(C(C)C)nc3sc(C)c(C)c23)s1 | -0.837 |
| CN(C)S(=O)(=O)c1ccc(Cl)c(NC(=O)COC(=O)CN2C(=O)NC(C)(C)C2=O)c1 | -0.162 |
| O=C1c2ccccc2C(=O)N1CCN1CCCCC1 | 0.0627 |
| N#Cc1c(NC(=O)c2ccc(Cn3cc(Br)cn3)o2)sc2c1CCCCCC2 | -0.375 |
| CC1(C)Cc2nc3nc(SCC(=O)NCc4ccccc4)n(-c4ccccc4)c(=O)c3cc2CO1 | 0.0372 |
| CCc1ccc(NC(=O)COC(=O)CCc2nc3cc(S(=O)(=O)N(CC)CC)ccc3n2C)cc1 | -0.4 |
| O=C(NCCC1=CCCCC1)c1ccc(F)c(S(=O)(=O)N2CCOCC2)c1 | 0.103 |
| N/C(Cc1ccc([N+](=O)[O-])cc1)=N\OC(=O)COc1ccc2ccccc2c1 | -0.133 |
| COCCNC(=O)C1CCCN(c2ncccn2)C1 (stereo not drawn) | -0.235 |
| CCOC(=O)CN(C(=O)CSc1nnc2c(n1)[nH]c1ccccc12)c1ccccc1 | -0.691 |
| COC(=O)c1ccccc1NC(=O)C1CCCN(S(=O)(=O)c2ccccc2)C1 (stereo not drawn) | -1.97 |
| O=C(CCC(=O)c1ccc(Br)cc1)Nc1cccc(C(F)(F)F)c1 | 0.0995 |
| CCOC(=O)CC(NC(=O)c1ccco1)c1ccccc1Cl (stereo not drawn) | -0.462 |
| CC(C)NC(=O)c1ccccc1NC(=O)CS(=O)(=O)Cc1ccccc1 | -0.28 |
| O=c1c2ccccc2nc(SCc2cn3ccsc3n2)n1-c1ccccc1F | -2.63 |
| Nc1nc(SCC(=O)Nc2ccccc2Sc2ccccc2)n[nH]1 | -0.629 |

| SMILES | z-score |
| --- | --- |
| Cc1ccc(-n2nnc3c(SCC(=O)NCC4CCCO4)ncnc32)cc1 (stereo not drawn) | 0.0501 |
| CCOC(=O)c1cccc(S(=O)(=O)N(CCO)Cc2cc3cc(OC)ccc3[nH]c2=O)c1 | -0.116 |
| O=C(CSc1nnc2scc(-c3ccccc3)n12)Nc1ccc2c(c1)OCCO2 | -1.39 |
| O=C(/C=C/c1ccc(F)cc1)Nc1cccc(S(=O)(=O)Nc2cccc(C(F)(F)F)c2)c1 | -0.207 |
| COCCN1C(=O)C(=O)/C(=C(/O)c2cccc(OC)c2)C1c1ccco1 (stereo not drawn) | -0.469 |
| Cc1cccc(-c2nnc(SCC(=O)N3c4ccccc4CCc4ccccc43)n2C)c1 | -0.366 |
| COc1ccc(OCC(=O)N/N=c2\oc3c(OC)cccc3cc2C(N)=O)cc1 | -0.154 |
| CC12C=CC3(O1)C(C(=O)N(c1ccccc1)C3C(=O)NC1CCCC1)C2C(N)=O (stereo not drawn) | 0.414 |
| COc1cccc2c(=O)n(CC(=O)Nc3ccccc3)ccc12 | 0.052 |
| Fc1ccc(-c2noc(C3CCN(Cc4cccnc4)CC3)n2)cc1 | 0.839 |
| Cc1ccccc1N(CC(=O)NC1CCCC1)C(=O)c1oc(C(C)(C)C)cc1C | -0.251 |
| COc1ccc(CCNC(=O)CCSc2nc(-c3ccco3)cc(C(F)(F)F)n2)cc1 | -0.38 |
| Cc1cc(OCC(=O)N2CCOCC2)c(C(C)C)cc1Cl | -0.938 |
| Cc1ccc(-c2nc3ncccc3o2)cc1NC(=O)c1sc2ccccc2c1Cl | -0.924 |
| Cc1nc2ccccc2nc1OCC(=O)N1CCN(c2ccccc2)CC1 | -0.273 |
| O=C(C(Cc1ccccc1)n1cccc1)N1CCN(C2CCCCC2)CC1 (stereo not drawn) | -0.652 |
| COc1ccc(NC(=O)CN2CCC(n3c(C)nc4cc(F)ccc43)CC2)c(OC)c1 | -0.554 |
| O=C1CC(c2ccccc2)n2nc(N3C(=O)c4ccccc4C3=O)nc2N1 (stereo not drawn) | -0.556 |
| O=c1[nH]c2ccc(Br)cc2c(-c2ccccc2)c1N1CCOCC1 | -0.809 |
| CSc1ccccc1NC(=O)CN(C)Cc1ccc(Br)cc1 | -0.0827 |
| O=C(Nc1ccc(F)cc1)c1nsc(Cl)c1Cl | 1.05 |
| COc1ccc(Nc2nc3ccccc3n3cnnc23)cc1 | -0.148 |

| SMILES | z-score |
| --- | --- |
| CCN(CCO)C1CC(=O)N(c2ccccc2C)C1=O (stereo not drawn) | -0.176 |
| COc1cc(NC(=O)CSc2nc3ccccc3cc2Cc2ccccc2)cc(OC)c1 | -0.162 |
| C[N+]1(CCN2C(=O)C3CC=C(Cl)CC3C2=O)CCOCC1 (stereo not drawn) | -0.354 |
| COC(=O)C1=C(Cn2cnc3ccccc32)NC(=O)NC1c1cc(C)ccc1C (stereo not drawn) | -0.794 |
| c1csc(C(c2nnnn2C2CCCCC2)N2CCN(c3nc4ccccc4s3)CC2)c1 (stereo not drawn) | -1.46 |
| CCOC(=O)C(CC)Sc1nc2c(c(=O)[nH]c(=O)n2C)n1C/C=C(/C)Cl (stereo not drawn) | -1 |
| Cc1ccc(-c2cn(-c3ccccc3)c3[n+]2CCCS3)cc1 | -0.266 |
| COc1ccc2c(c1[N+](=O)[O-])CCC/C2=N/OC(=O)c1cccc2ccccc12 | 0.0304 |
| O=C(CN1CCCC1)Nc1ccc(-c2nc3cc(NC(=O)CN4CCCC4)ccc3o2)cc1 | 0.556 |
| CC(=O)c1ccc(NS(=O)(=O)c2cccc(C)c2)cc1 | -0.256 |
| N#CC1=C(N)SC(N)=C(C#N)C1C1C=CCCC1 (stereo not drawn) | 0.0133 |
| CS(=O)(=O)c1cnc(-c2ccccc2)nc1Oc1ccc(F)cc1 | -0.0732 |
| COc1c(F)c(F)c(C(=O)Nc2ccc(N3CCN(C(C)=O)CC3)c(Cl)c2)c(F)c1F | -0.24 |
| CCOc1ccc(C(=S)N2CCCC2)cc1 | 0.0258 |
| CCn1c(SCc2nc3ccccc3[nH]2)nnc1-c1cccs1 | -0.237 |
| CCOC(=O)C1CCCN(c2c(NCCc3ccc(S(N)(=O)=O)cc3)c(=O)c2=O)C1 (stereo not drawn) | 1.02 |
| c1ccc(-c2nc3cnccn3c2Nc2ccc3c(c2)OCCO3)cc1 | 0.216 |
| O=C(O)C1CC(=O)N(C2CCCCC2)C1c1ccccc1 (stereo not drawn) | 0.0745 |
| Cc1ccc(-n2c(N)c(C(N)=O)sc2=S)cc1 | 1.2 |
| Cc1cccc(/C=N/NC(=O)CNc2cccc3ccccc23)n1 | 0.238 |
| O=C(OCC(=O)N1CCc2ccccc21)c1c2c(nc3ccccc13)CCCCC2 | -0.0336 |
| O=C(OC(C(=O)Nc1cccc(C(F)(F)F)c1)c1ccccc1)C1CCCCC1 (stereo not drawn) | 0.104 |

| SMILES | z-score |
| --- | --- |
| CCn1cc(CNC(=O)NC2CCCCC2)c(C)n1 | -0.118 |
| Fc1ccc(-c2nnc(SCc3ncc(-c4ccccc4)o3)n2CC2CCCO2)cc1 (stereo not drawn) | -0.509 |
| CCn1c2ccccc2c2cc(NC(=O)COC(=O)c3cccc(S(=O)(=O)NC)c3)ccc21 | -0.176 |
| O=C(Nc1ccc(Cl)cc1)N(Cc1cccs1)Cc1cccs1 | 0.142 |
| CCC(=O)N1CCN=C1SCc1ccc(Cl)cc1 | 0.425 |
| Cc1cc(C)cc(N(C(C)C(=O)NC2CCCC2)S(C)(=O)=O)c1 (stereo not drawn) | 0.113 |
| Cc1cccc(NC(=O)CN(C)S(=O)(=O)c2ccccc2)n1 | 0.503 |
| Cc1ccc2ccc(S(=O)(=O)n3nc(C)cc3C)cc2c1 | -0.75 |
| COC(=O)c1cccnc1NC(=S)NNC(=O)c1ccncc1 | 0.00261 |
| O=C(NCc1ccccn1)c1cn(Cc2ccccc2)nn1 | -0.856 |
| COc1cccc(N(CC(=O)N2CCN(c3ccccc3OC)CC2)S(C)(=O)=O)c1 | 0.0693 |
| CCn1nc(C)c(NC(=O)/C=C/c2ccc(OC)c(COc3ccc(Br)cc3)c2)c1C | -1.25 |
| CCOC(=O)c1c(NS(=O)(=O)c2cccc(OC)c2)sc2c1CCC2 | active: 16.9 |
| COc1cc(C)ccc1OCCCCN1CC(C)OC(C)C1 (stereo not drawn) | -0.119 |
| Cc1nn(-c2ccccc2)c(C)c1P(=O)(c1ccccc1)N(C)C (stereo not drawn) | 1.71 |
| COc1ccc(C(C)=O)cc1CSc1nc2ccccc2c(=O)n1-c1ccccc1C | 0.07 |
| COC(=O)/C(=C/c1ccc(F)cc1)NC(C)=O | -0.177 |
| CSc1cccc(NC(=O)CSc2nnc(C)s2)c1 | -0.569 |
| CC(=O)N1N=C(c2ccco2)CC1c1cccs1 (stereo not drawn) | -0.152 |
| Nc1ccc(C(=O)N/N=C\c2cc(N=Nc3cccc4ccccc34)ccc2O)cc1 | 0.26 |
| Cc1ccc(N2CCN(c3ccc(C)cc3)C(CC(=O)O)C2=O)cc1 (stereo not drawn) | 0.799 |
| Cc1ccc(OCc2nc(-c3ccc(-n4cccc4)cc3)no2)cc1C | -0.0508 |

| SMILES | z-score |
| --- | --- |
| CCN1C(=O)/C(=C2\SC(=S)N(c3c(C)n(C)n(-c4ccccc4)c3=O)C2=O)c2ccccc21 | 1.22 |
| COc1cc(/C=C2/CCc3ccccc3C2=O)cc(OC)c1OC | -0.608 |
| COc1ccc(OC)c(S(=O)(=O)Nc2cccc(C(C)=O)c2)c1 | -0.0708 |
| O=C(Cc1cccs1)NCc1cn2ccccc2n1 | 0.0432 |
| COc1ccc(N(CC(=O)N2CCc3ccccc32)S(=O)(=O)c2c(C)nn(C)c2C)cc1 | 1.95 |
| O=c1[nH]c(CSc2nnc(-c3cccnc3)n2C2CCCCC2)nc2ccccc12 | 0.164 |
| Cc1ccc2c(c1)nc(NCCCO)n2C | -0.0773 |
| Cc1cc(NC(=O)CCN2C(=O)C3C4CCC(C4)C3C2=O)cc(C)c1Br (stereo not drawn) | -0.242 |
| CCN1CCCc2cc(CN(CCN3CCOCC3)C(=O)Nc3ccc(C)c(C)c3)ccc21 | -0.475 |
| O=C(Nc1ccc(N2CCCC2)cc1)c1ccc([N+](=O)[O-])cc1Cl | -0.117 |
| Cc1ccccc1-c1nnc(SCCOc2ccc3c(C)cc(=O)oc3c2)o1 | 0.05 |
| O=[N+]([O-])c1ccc2c(c1Nc1ccccc1)=NC1(CCCCC1)N=2 | -0.216 |
| CCOC(=O)C1=C(C)OC(N)=C(C(=O)OCC)C1c1cccnc1 (stereo not drawn) | -0.567 |
| CCOC(=O)c1ccc(CNC(=O)CSc2nc(NC(=O)c3ccccc3)c3c(C)c(C)oc3n2)cc1 | -0.0764 |
| Cc1cc(C(=O)COc2ccc(C#N)cc2)c(C)n1-c1ccc2c(c1)OCO2 | -0.245 |
| COc1ccc(Nc2oc(COc3ccc(Cl)cc3)nc2C#N)cc1 | 0.0424 |
| Cc1cccc(NC(=O)CCSc2nc(C)cc(C)n2)c1 | 0.233 |
| CCCOc1ccc(CC2CCC(=O)NC2=O)cc1 (stereo not drawn) | -0.173 |
| Cc1ccc2cc(CCNC(=O)c3ccco3)c(=O)[nH]c2c1 | 0.076 |
| CCOCCCNC(=O)Cc1ccc(Br)cc1 | -0.0629 |
